Results on 42 molecules are retold here after ChEMBL document CHEMBL4888484, “Replenishing the malaria drug discovery pipeline: Screening and hit evaluation of the MMV Hit Generation Library 1 (HGL1) against asexual blood stage Plasmodium falciparum ,using a nano luciferase reporter read-out” (2022).

Screen size: about 150,000 compounds; about 540 (0.36%) showed an effect of 50% or more. The list shows a part of the results.

The assay deals with Plasmodium falciparum. The assay can be described thus: Primary screen in NF54 nanoGlo assay, in single point, at 2uM, 72h; a lower Z score goes with more inhibition. The assay is classed as functional, Erythrocyte. As to conditions: timepoint 72 hour.
One may read the % Inhibition as the drop in the measured response relative to a control, in per cent. For `CC(C)(C(=O)O)c1cnc(N2CCC2)nc1N1CCOCC1`, the “% Inhibition” value was determined as 3% and the Z score is -0.54.
Take `CCCOc1cccc(CON=C(N)CCO)c1`: the “% Inhibition” value is -10% and the Z score is 1.38.
For `CC12CC(=O)NC1N=C(c1ccccc1O)C2` (centres undefined) the same measures were 5% and -0.53.
For the molecule `CCCc1nnc(N2C[C@H](C(C)C)[C@@H](N)C2)s1`, the “% Inhibition” value is recorded as 1% and the Z score was -0.16.
In the same order, the values of `CCc1nn(C)c2c(=O)n(Cc3csc(C)n3)cnc12` are -7% and 1.47.
For the molecule `Cc1csc(C(=O)NCC[C@H](O)C(C)(C)C)c1`, the “% Inhibition” value is recorded as -11% and the Z score is reported as 1.67.
As to `Cc1cccc(OC[C@H](C)NC(=O)NC2CCC(O)CC2)c1` (some centres undefined), the “% Inhibition” value is listed as -6% and the Z score is given as 1.02.
Turning to `O=C(C[C@]1(c2ccccc2F)CC(=O)N(C2CCCC2)C1=O)N1CCN(c2ccccc2)CC1`, the “% Inhibition” value stood at 3% and the Z score is -0.33.
Regarding `Cc1ncc2c(c1-c1noc(CCc3cccs3)n1)CCNC2`, the “% Inhibition” value is recorded as -10% and the Z score stood at 0.95.
In the case of `COc1ccc(CN2C(=O)c3c(NC(C)=O)c4ccccc4n3C[C@@]2(C)C(=O)NC2CCCC2)cc1`, the “% Inhibition” value was -3% and the Z score was 0.3.
`COc1ccc(CN2CCCCCC2CC(O)c2cccs2)nn1` (centres undefined): the “% Inhibition” value is recorded as -11% and the Z score is 1.35.
For `Cn1cnnc1[C@H](CO)Nc1nc(C2CCCCC2)ns1` the same measures were 3% and -0.5.
On to `CN(CC1CCCC1O)C(=O)[C@H]1CCC(=O)N1` (some centres undefined), for which the “% Inhibition” value was -10% and the Z score came out at 1.39.
As for `CC(C)CCN1CCN(CCC(C)C)[C@H](C(=O)N(C)C)C1`, the “% Inhibition” value was found to be 0% and the Z score is -0.03.
On to `Cc1nn(C)c2nc(NCC3(N4CCOCC4)CCCCCC3)sc12`, for which the “% Inhibition” value is reported as -2% and the Z score is reported as 0.22.
`CCCC[C@@H]1C[C@@H]1C(=O)NCC1(O)CCN(C)CC1`: the “% Inhibition” value was found to be 4% and the Z score is -0.85.
On to `Cc1cc(NC(=O)CN2CCC(c3nnc4n3CCC4)CC2)no1`, for which the “% Inhibition” value is reported as -13% and the Z score amounted to 2.19.
On to `COCC(=O)NC[C@H]1CCN(Cc2ccc3cccc(Cl)c3n2)C1`, for which the “% Inhibition” value was -3% and the Z score was found to be 0.66.
On to `CCN1C[C@@H](c2ccccc2)CC2(CCN(S(=O)(=O)C3CC3)CC2)C1`, for which the “% Inhibition” value is on record as 8% and the Z score is recorded as -1.02.
For `CS(=O)(=O)c1ccc(CN2CCC([C@H](O)c3ccccn3)CC2)cc1`, the “% Inhibition” value is -10% and the Z score was determined as 0.99.
On to `O=C(c1ccc(C(=O)N2CCCCC2)cc1)N1CCCCC1`, for which the “% Inhibition” value is reported as -13% and the Z score is recorded as 2.38.
As to `CC(C)c1ccc(N2C[C@H](O)[C@@H](N3CCCC3)C2)nn1`, the “% Inhibition” value is -6% and the Z score stood at 0.86.
In the case of `NC(=O)[C@@H]1C[C@H](Oc2ccccc2)CN1S(=O)(=O)c1cccc(F)c1`, the “% Inhibition” value is -12% and the Z score amounted to 1.62.
On to `O=C(CCC1CCCCO1)NC1CC[S+]([O-])C1` (centres undefined), for which the “% Inhibition” value was -9% and the Z score stood at 1.3.
On to `C=CCn1nnnc1NC/C=C/c1ccc(Cl)cc1`, for which the “% Inhibition” value was -2% and the Z score is reported as 0.22.
Consider `Cc1nccn1C[C@H]1CCCN(c2nc3ccccc3o2)C1`, for which the “% Inhibition” value is listed as 9% and the Z score is -1.29.
With `OC[C@H]1CCCN1c1ncc(Cl)cc1Cl`, the “% Inhibition” value is given as -10% and the Z score is 1.43.
Turning to `O=C(NCC1(O)CCOCC1)Nc1ncc(C2CCCCC2)s1`, the “% Inhibition” value is given as -10% and the Z score came to 1.05.
For `Cc1nsc(C)c1C(=O)N1CCOc2cc(O)ccc2C1` the same measures were -12% and 2.17.
In the same order, the values of `O=C(NCCc1cnccn1)c1cn(C[C@H]2COc3ccccc3O2)nn1` are -11% and 1.
Turning to `C[C@H]1CN(CCOC(=O)N(C)C)C(C)(C)CO1`, the “% Inhibition” value amounted to 5% and the Z score is given as -0.72.
Regarding `Cc1cc(NC(=O)c2ccc(C(F)(F)F)c(=O)[nH]2)nn1C`, the “% Inhibition” value is -4% and the Z score came out at 0.58.
Consider `Fc1cc2ncn(Cc3nccn3CC(F)(F)F)c2cc1F`, for which the “% Inhibition” value was -12% and the Z score is given as 1.6.
Consider `CC(=O)N1c2ccc(S(=O)(=O)N3CCCCC3)cc2C[C@H]1C(=O)Nc1ccc(C)c(C)c1`, for which the “% Inhibition” value was -2% and the Z score came out at 0.24.
On to `Cn1c(CCNC2CC(C)(C)CC(C)(C)C2)n[nH]c1=O`, for which the “% Inhibition” value was -12% and the Z score turned out to be 1.47.
In the case of `Cc1nc(N(C)C[C@@]2(C)CCN(C)C2)c2c(C)nn(C)c2n1`, the “% Inhibition” value is listed as -2% and the Z score was 0.41.
For `CC(=O)N1CC2=Nc3cccc4[nH]cc(c34)[C@H](c3ccc(Cl)cc3Cl)C2=C1O`, the “% Inhibition” value turned out to be 1% and the Z score is -0.19.
`O=C(c1coc(-c2ccccc2)n1)N1CC[C@H](Oc2cccc(F)c2)C1`: the “% Inhibition” value came to 1% and the Z score is recorded as -0.2.
`CCc1nc(-c2ccc3c(c2)CCN3C(=O)Cc2ccc(OC)c(OC)c2)no1`: the “% Inhibition” value is on record as 18% and the Z score is on record as -2.06.
Regarding `COc1cccc(-c2cnc3nc(C)[nH]c3c2)c1F`, the “% Inhibition” value is -12% and the Z score is recorded as 1.52.
As to `CCCc1cc(CNc2ncnc3onc(C)c23)on1`, the “% Inhibition” value was -15% and the Z score is recorded as 2.23.
Consider `CC1C(c2ccccc2)CCN1C(=O)C1CCCC(N)C1` (centres undefined), for which the “% Inhibition” value was found to be 0% and the Z score is given as 0.06.
